This is one part of the list. The data describe in vitro nicking of single-stranded DNA by Rep domains for 1 h at 37 °C with 3 µM enzyme; only the middle of the 90-letter strands is printed. A value is the log2 ratio of uncut reads to the pool without enzyme; uncut sequences lie near 0, cut ones below; no hit call is given. Reads are scaled to the total, so uncut sequences can rise above 0 when many others are cut.

One test deals with T1, Rep nickase domain of Muscovy duck circovirus.
T1 sequence (residues 1-111 of Rep, tag left off): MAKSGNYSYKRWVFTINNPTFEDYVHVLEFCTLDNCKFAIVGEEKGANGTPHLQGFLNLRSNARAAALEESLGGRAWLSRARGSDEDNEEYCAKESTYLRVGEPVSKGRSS
Nature of the test: uncleaved DNA left, log2 of reads against the no-enzyme library (log2 ratio); higher = less cleavage (more negative = more Rep cleavage of the k-mer); sequences stand for … in CTCGTCCG…ACCGGAGA
As to the method:
(§1)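 A pool of 90-nt single-stranded DNAs with seven random bases just before the constant AC of the nick site (name = the seven bases) was cut by 3 µM recombinant His6-SUMO-tagged Rep nickase domain (300 nM DNA, 50 mM HEPES pH 8.0, 50 mM NaCl, 1 mM MnCl2, 1 h, 37 °C, three replicates). Uncut DNA was amplified and sequenced.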
Regarding GAGTGCT, the “uncleaved DNA left (log2)” value is -0.692.
Still for that read-out and setting: next, TCACCTT: 0.0514; TAACCTG: -0.00946.
On to TACGGAT, for which the “uncleaved DNA left (log2)” value amounted to 0.169.
As for CACGCGT, the “uncleaved DNA left (log2)” value was -0.0913.
As for GCTATCC, the “uncleaved DNA left (log2)” value worked out at 0.0103.
With GAGAGAT, the “uncleaved DNA left (log2)” value is -0.0464.
As to GCATCCG, the “uncleaved DNA left (log2)” value amounted to 0.018.
On the same count and under the same terms, next, CACGAAT: -0.00695.
Still for that read-out and setting: then CGCGCTT, with -0.0634; and TTTTCCA, with -0.212; and AGCCGAT, with 0.0674.
AATTTTT: the “uncleaved DNA left (log2)” value was -3.57.
On the same count and under the same terms, next, TTATGCT: -3.16; CACTATG: 0.0659.
Turning to GGTAGTA, the “uncleaved DNA left (log2)” value was -0.046.
Same read-out and setting: then ACAGCCC, with -0.0749.
On the same count and under the same terms, next, CGTAAGC: -0.117; TCCTTTC: 0.0172.
The same measure, in the same setting: next, GGTGAAC: 0.0825.
For AGATTGA, the “uncleaved DNA left (log2)” value was 0.0341.
On to CAAATGG, for which the “uncleaved DNA left (log2)” value turned out to be 0.0906.
Still for that read-out and setting: next, CCGGGGT: -0.0284; GAGGGGG: 0.116; TGGACCA: -0.00864.
As for ATGGTTG, the “uncleaved DNA left (log2)” value was 0.0162.
On the same count and under the same terms, then AACAGGG, with 0.0775.
Consider AAATCCG, for which the “uncleaved DNA left (log2)” value is 0.117.
Still for that read-out and setting: then GTTAGTT, with -0.0414.
The same measure, in the same setting: then GGCCTCA, with 0.186.
As to TGTTTGA, the “uncleaved DNA left (log2)” value was found to be 0.113.
The same measure, in the same setting: then TCCCGTC, with -0.00744; and ACCTTTT, with -2.32; and AACACGG, with -0.0833.
The same measure, in the same setting: then GGCTCAT, with 0.105.
Same read-out and setting: next, GACCTTC: -0.0882.
TATCCGT: the “uncleaved DNA left (log2)” value came to 0.0678.
Consider CTGATTC, for which the “uncleaved DNA left (log2)” value is -0.00805.
The same measure, in the same setting: next, CGCATCC: 0.0054.
As for TCAGGCA, the “uncleaved DNA left (log2)” value is 0.0493.

A further test concerns T2, Rep nickase domain of banana bunchy top virus.
T2 sequence (residues 1-94 of Rep, tag left off): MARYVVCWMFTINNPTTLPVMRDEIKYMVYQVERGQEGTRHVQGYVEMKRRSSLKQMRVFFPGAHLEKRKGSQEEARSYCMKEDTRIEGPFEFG
The test is described as above. The protocol: as §1
Turning to GAGTGCT, the “uncleaved DNA left (log2)” value was -2.16.
On the same count and under the same terms, next, TCACCTT: -0.0443.
Same read-out and setting: then TAACCTG, with -0.0161; and TACGGAT, with 0.0714; and CACGCGT, with -0.181.
Same read-out and setting: next, GCTATCC: 0.0906; GAGAGAT: 0.0754.
For GCATCCG, the “uncleaved DNA left (log2)” value is -0.0265.
On the same count and under the same terms, then CACGAAT, with -0.239; and CGCGCTT, with -0.0842; and TTTTCCA, with -0.0414.
The same measure, in the same setting: then AGCCGAT, with 0.00765; and AATTTTT, with -3.79.
Take TTATGCT: the “uncleaved DNA left (log2)” value was -0.0895.
As for CACTATG, the “uncleaved DNA left (log2)” value was determined as 0.121.
As for GGTAGTA, the “uncleaved DNA left (log2)” value is 0.0717.
The same measure, in the same setting: then ACAGCCC, with -0.103; and CGTAAGC, with 0.00874.
The same measure, in the same setting: next, TCCTTTC: -0.00353.
Turning to GGTGAAC, the “uncleaved DNA left (log2)” value was determined as 0.0389.
Still for that read-out and setting: then AGATTGA, with 0.0312.
Same read-out and setting: next, CAAATGG: -0.0513; CCGGGGT: -0.0359; GAGGGGG: 0.142.
Still for that read-out and setting: then TGGACCA, with 0.0872.
Regarding ATGGTTG, the “uncleaved DNA left (log2)” value stood at 0.00569.
Take AACAGGG: the “uncleaved DNA left (log2)” value is -0.045.
Same read-out and setting: then AAATCCG, with 0.0505.
Still for that read-out and setting: then GTTAGTT, with -0.0705.
For GGCCTCA, the “uncleaved DNA left (log2)” value turned out to be 0.259.
As to TGTTTGA, the “uncleaved DNA left (log2)” value was 0.074.
The same measure, in the same setting: then TCCCGTC, with -0.049; and ACCTTTT, with -0.407.
Turning to AACACGG, the “uncleaved DNA left (log2)” value is -0.0646.
The same measure, in the same setting: then GGCTCAT, with 0.0971; and GACCTTC, with -0.0829.
Same read-out and setting: next, TATCCGT: 0.0871; CTGATTC: -0.137.
As for CGCATCC, the “uncleaved DNA left (log2)” value worked out at 0.0189.
In the case of TCAGGCA, the “uncleaved DNA left (log2)” value is 0.0183.

A further test has as its system T3, Rep nickase domain of cabbage leaf curl virus.
T3 sequence (residues 1-116 of Rep, tag left off): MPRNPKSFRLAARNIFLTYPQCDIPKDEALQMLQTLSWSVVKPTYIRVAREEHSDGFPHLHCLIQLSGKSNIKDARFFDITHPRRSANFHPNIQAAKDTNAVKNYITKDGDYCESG
The test is described as above. The protocol:
as §1
Consider GAGTGCT, for which the “uncleaved DNA left (log2)” value was -0.428.
The same measure, in the same setting: then TCACCTT, with -0.15; and TAACCTG, with -0.0879; and TACGGAT, with 0.287.
In the case of CACGCGT, the “uncleaved DNA left (log2)” value is -0.93.
With GCTATCC, the “uncleaved DNA left (log2)” value was found to be 0.173.
The same measure, in the same setting: then GAGAGAT, with 0.516; and GCATCCG, with -0.677.
Same read-out and setting: then CACGAAT, with -0.06.
For the sequence CGCGCTT, the “uncleaved DNA left (log2)” value is -0.0849.
Take TTTTCCA: the “uncleaved DNA left (log2)” value is 0.0734.
AGCCGAT: the “uncleaved DNA left (log2)” value is 0.105.
Still for that read-out and setting: next, AATTTTT: -2.11; TTATGCT: -3.19; CACTATG: -0.391.
For GGTAGTA, the “uncleaved DNA left (log2)” value amounted to 0.456.
Same read-out and setting: then ACAGCCC, with -0.284; and CGTAAGC, with 0.273; and TCCTTTC, with 0.0111.
The same measure, in the same setting: then GGTGAAC, with 0.723; and AGATTGA, with -0.146.
Still for that read-out and setting: next, CAAATGG: -0.24; CCGGGGT: 0.635; GAGGGGG: 0.209.
As to TGGACCA, the “uncleaved DNA left (log2)” value stood at 0.742.
On the same count and under the same terms, next, ATGGTTG: 0.0237.
On to AACAGGG, for which the “uncleaved DNA left (log2)” value is -0.283.
For the sequence AAATCCG, the “uncleaved DNA left (log2)” value was -0.804.
Same read-out and setting: next, GTTAGTT: 0.176; GGCCTCA: 0.5.
On the same count and under the same terms, next, TGTTTGA: 0.127.
The same measure, in the same setting: next, TCCCGTC: 0.293; ACCTTTT: -0.362; AACACGG: 0.356.
In the case of GGCTCAT, the “uncleaved DNA left (log2)” value is 0.854.
As to GACCTTC, the “uncleaved DNA left (log2)” value came out at 0.174.
Still for that read-out and setting: next, TATCCGT: -0.185.
With CTGATTC, the “uncleaved DNA left (log2)” value is -0.0652.
The same measure, in the same setting: then CGCATCC, with 0.0203; and TCAGGCA, with 0.0553.

Source of the values: the supplement of paper PMC7826260.
